Source: PubChem BioAssay AID1030 (National Center for Advancing Translational Sciences (NCATS), 2008)
Among all 220,000 compounds or so, about 16,000 (7.3%) were called active. This list was built around the results that the source calls inconclusive (neither active nor inactive); the mix of calls is not that of the screen. Calls come from the whole dose curve; as a rule, active = well fitted inhibition curve with a large enough effect (not every such curve was filed as active); inconclusive = small, poorly fitted or top-dose-only effect, or another doubt; inactive = no such curve, though single readings can be large or run the other way. Potencies of inconclusive entries are doubtful fits and often do not repeat.

These compounds were tested against Aldehyde dehydrogenase 1A1 (Homo sapiens) (UniProt P00352) (assay: qHTS Assay for Inhibitors of Aldehyde Dehydrogenase 1 (ALDH1A1)). Conditions: Purified ALDH1A1, NADH fluorescence, propionaldehyde substrate; series mostly up to 75.3 µM; activity, negative = inhibition: at the top concentration.
Potency is the fitted concentration of half-maximal effect; tags give direction and shape of the fitted curve.
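Throughout, for activity, negative = inhibition: plate controls were no enzyme wells and a reference inhibitor.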

UniProt P00352, sequence (P00352 whole entry, looked up): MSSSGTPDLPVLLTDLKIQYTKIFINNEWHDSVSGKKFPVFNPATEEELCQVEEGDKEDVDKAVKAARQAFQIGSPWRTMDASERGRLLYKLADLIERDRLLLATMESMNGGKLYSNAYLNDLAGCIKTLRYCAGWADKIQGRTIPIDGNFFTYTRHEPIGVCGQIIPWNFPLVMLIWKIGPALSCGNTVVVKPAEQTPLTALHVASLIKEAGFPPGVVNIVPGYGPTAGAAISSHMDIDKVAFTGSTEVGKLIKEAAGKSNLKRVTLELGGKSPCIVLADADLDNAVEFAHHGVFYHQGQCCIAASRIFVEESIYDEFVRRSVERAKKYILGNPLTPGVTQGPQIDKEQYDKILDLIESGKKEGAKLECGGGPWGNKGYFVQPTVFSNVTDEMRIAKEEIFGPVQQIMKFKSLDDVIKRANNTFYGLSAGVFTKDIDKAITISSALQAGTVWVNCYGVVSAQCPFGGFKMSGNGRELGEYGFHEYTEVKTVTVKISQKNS

activity, negative = inhibition, inactive:
CCCCCCC(=O)Nc1nc(C)c(-c2csc(Nc3cc(OC)ccc3OC)n2)s1 -5.18%, COc1ccc(NC(=O)N2CCN(c3ccc([N+](=O)[O-])cc3)CC2)cc1 -8.49%, Cn1nnc2cc(C(=O)N3CCSCC3)ccc21 6.13%, O=C(/C=C\Nc1ccccc1Br)c1ccc2c(c1)OCO2 -15.2%, CCOC(=O)c1nnsc1Nc1ccc(C)c(C)c1 -9.23%, COc1ccc(-c2csc(C3=C(O)CN(Cc4ccc(Cl)cc4)C3=N)n2)cc1OC 6.79%, O=C(NCc1ccccc1)c1ccc(Oc2ccc(C(=O)NCc3ccccc3)cc2)cc1 0.479%, CC(C)c1ccc2c(c1)CCC1C(C)(C(N)=O)CCCC21C (stereo unspecified) -0.363%, CC(/C=N/NC(=O)c1cc(-c2cccs2)[nH]n1)=C\c1ccccc1 8.75%, CCCn1c(=O)c2[nH]c(-c3ccccc3)nc2n(CCC)c1=O -9.96%, O=C(N/C=N/O)C1=NOC(CNc2ncc(C(F)(F)F)cc2Cl)C1 (stereo unspecified) 9.71%, O=C(COn1nnc2ccc(C(F)(F)F)cc21)Nc1c(Cl)cccc1Cl 4.92%, COCCn1c(C)cc(C(=O)CSc2nnc3ccccn23)c1C 7.29%, Cc1cc(C)nc(NS(=O)(=O)c2ccc(NC(=O)c3ccc(S(=O)(=O)N4CC(C)OC(C)C4)cc3)cc2)n1 (stereo unspecified) -3.65%, O=S(=O)(N1CCCCCC1)N1CCN(S(=O)(=O)N2CCCCC2)CC1 3.81%, Cc1ccc(CSc2nnc(-c3ccc4c(c3)OCO4)o2)cc1 -2.31%, O=C(COC(=O)CNC(=O)C1CCCCC1)Nc1ccc2c(c1)OCCO2 -4.17%, COc1ccc(/C=C(/NC(=O)c2ccccc2)C(=O)N/N=C/c2cccs2)cc1OC 6.33%, Cc1cccc(CN2CCNC2=O)c1 -6.24%

Potency, inactive:
Nc1ncnc2c1ncn2C1OC(CO)C(O)C1O (stereo unspecified)

Potency, active:
CCCCSc1nnc(-c2ccccc2N)c(=O)[nH]1 1.58 µM, S=c1nc(C2CC2)[nH]c2ccccc12 12.6 µM, N#Cc1c(NC(=O)CSc2ncnc3sccc23)oc(-c2ccco2)c1-c1ccco1 10 µM, CC1CCCCN1C(=O)CSc1nc2cc3c(cc2c(=O)n1Cc1ccc2c(c1)OCO2)OCO3 (stereo unspecified) 22.4 µM, Cc1ccc(/C=C/C(=O)Nc2ccc([N+](=O)[O-])cc2)o1 11.9 µM, Cc1ccc(CNc2ncc(-c3ccc4c(c3)OCO4)n2C)cc1 15.8 µM, CC(C)c1ccc(N(C(=O)c2cc3ccccc3oc2=O)C2C=CS(=O)(=O)C2)cc1 (stereo unspecified) 25.1 µM, Cc1ccc(-c2nc(N3CCOCC3)sc2C(=O)N2CCOCC2)cc1 20 µM, Cc1nn(-c2ccccc2)c2sc(C(=O)N3CCCCC3)cc12 1.78 µM, Cc1ccc(-n2c(C)cc(C3N=C(N)Nc4nc5ccccc5n43)c2C)c(C)c1 (stereo unspecified) 12.6 µM, COC(=O)c1c(-c2ccc(C(C)(C)C)cc2)csc1NC(=O)C1C2CCC(O2)C1C(=O)O (stereo unspecified) 5.01 µM, Cc1cc(C)nc(SCc2ccc(C(=O)NN=C3CCCC3)cc2)n1 2.82 µM, Cc1cnc(C(=O)OCC(=O)N2CCc3ccccc32)cn1 3.16 µM, Cc1cc(C)c(C#N)c(OCC(=O)c2ccccc2)n1 6.31 µM, CCS(=O)(=O)n1nc(-c2ccco2)nc1SC 22.4 µM, Cn1c(=O)c2c(O)c(Cc3ccccc3)c(=O)[nH]c2n(C)c1=O 14.1 µM, CC1CC(C)(C)NCc2ccccc21 (stereo unspecified) 0.562 µM

Potency, inconclusive:
CCN(CC)S(=O)(=O)c1ccc(C(=O)Oc2ccc3c(c2)OCO3)cc1 39.8 µM [inhibitor, single point], COc1ccccc1-c1nc(C#N)c(N2CCN(c3cccc(Cl)c3)CC2)o1 22.4 µM [inhibitor, partial curve], CCSc1nc2c(c(=O)n1Cc1ccccc1)SC(C)C2 (stereo unspecified) 25.1 µM [inhibitor, single point], COC(=O)Cc1nc2ccccc2[nH]1 39.8 µM [inhibitor, single point], CC1=C(C(=O)Nc2ccccc2F)C(c2ccsc2)C2=C(CC(C)(C)CC2=O)N1 (stereo unspecified) 35.5 µM [inhibitor, single point], CCCOc1ccc(C2C(=O)N(C3CCCCC3)CC(=O)N2CCCOCC)cc1OC (stereo unspecified) 31.6 µM [inhibitor, single point], CCN(CC)S(=O)(=O)c1ccc2c(c1)c(=O)c(C(=O)NCc1ccco1)cn2C 18.9 µM [inhibitor, partial curve, poor fit], COC(=O)C1=C(C)N(CCC2=CCCCC2)C(=O)C1 28.2 µM [inhibitor, single point], Cn1c(=O)c(C(=O)CN2CCCc3ccccc32)c(N)n(Cc2ccccc2)c1=O 10 µM [inhibitor, partial curve], Cc1cc(C)nc(Nc2nc(=O)c3ccccc3s2)n1 31.6 µM [inhibitor, partial curve], COc1cc(C(=O)Nc2nc3ccccc3s2)ccc1OCc1c(C)noc1C 35.5 µM [inhibitor, single point], CC(C)(C)NC(=O)NC(=O)COC(=O)CNC(=O)C1CCCCC1 2.82 µM [inhibitor, single point], CCc1cccc(CC)c1NC(=O)Cn1c(-c2ccc(F)cc2)noc1=O 39.8 µM [inhibitor, single point], S=C(NCC1CCCO1)Nc1ccc(Nc2ccccc2)cc1 (stereo unspecified) 28.2 µM [inhibitor, single point], COc1ccccc1-n1c(CCn2nc(C)c(Br)c2C)n[nH]c1=S 31.6 µM [inhibitor, single point], COc1ccc(CN(CC2CCC(C(=O)O)CC2)C(=S)Nc2cccc(C)c2)cc1 (stereo unspecified) 39.8 µM [inhibitor, single point], CCOC(=O)c1ccc(NC(=O)CC2C(=O)N(c3ccc(F)cc3)C(=O)N2CCCOC)cc1 (stereo unspecified) 44.7 µM [inhibitor, single point], COc1ccc(/C=C(\NC(=O)c2ccc([N+](=O)[O-])cc2)C(=O)N2CCOCC2)cc1 17.8 µM [inhibitor, partial curve], c1cc2c(cc1-c1cnc3n1CCC3)OCCO2 39.8 µM [inhibitor, single point], CC1CCCC(C)N1C(=O)CSc1nnc(CSc2ncccn2)n1C (stereo unspecified) 31.6 µM [inhibitor, single point], CC(=O)NN1C(=O)c2ccccc2NC1c1ccccn1 (stereo unspecified) 25.1 µM [inhibitor, single point], COc1ccc(OC)c(-c2csc(NC(=O)c3ccc(OCC4CCCO4)cc3)n2)c1 (stereo unspecified) 25.1 µM [inhibitor, partial curve], Cc1nn(-c2ccccc2)c(C)c1NC(=O)COc1ccc(Br)cc1Cl 39.8 µM [inhibitor, single point], CCc1ccc(NC(=O)N2CCN(c3ccc(F)cc3)CC2)cc1 35.5 µM [inhibitor, single point], O=C1/C(=C\Nc2ccc(Cl)cc2)CCN1c1ncccn1 44.7 µM [inhibitor, single point], O=C(Nc1ccc2c(c1)OCO2)c1cccc2c1C(=O)N(Cc1cccnc1)C2 25.1 µM [inhibitor, partial curve], CCCCOc1ccc(C(=O)N2CCCC2)cc1 35.5 µM [inhibitor, partial curve, poor fit], C=CCc1ccc(OCCOCCNCCCC)c(OC)c1 15.8 µM [inhibitor, partial curve], COc1ccc(C(=O)Nc2ccc(N3CCN(C(C)=O)CC3)cc2)cc1[N+](=O)[O-] 39.8 µM [inhibitor, single point], CCOC(=O)/C(C#N)=C\c1c(OCC)n(CC)c2ccccc12 20 µM [inhibitor, single point], O=C(N/N=C/c1c[nH]c2ccccc12)c1ccc2c(c1)OCCO2 44.7 µM [inhibitor, single point], CCn1c(SCC(=O)N2CCCc3ccccc32)nc2c(c1=O)SC(C)C2 (stereo unspecified) 39.8 µM [inhibitor, single point], O=C(c1cc2cc(Br)ccc2o1)N1CCCC1 20 µM [inhibitor, partial curve], O=C(Nc1nc(-c2ccccc2)cs1)C1CCCCN1S(=O)(=O)c1ccccc1 (stereo unspecified) 39.8 µM [inhibitor, single point], CCOC(=O)N1CCC(NC(=O)C2CCCN(C(=O)c3cc4sccc4n3C)C2)CC1 (stereo unspecified) 44.7 µM [inhibitor, single point], COc1ccc(Oc2ncc3nc(C)c(=O)n(C[C@H]4CCCO4)c3n2)cc1 35.5 µM [inhibitor, single point], COc1ccc(OCC(O)CN(C)C(=O)/C=C/c2cccc([N+](=O)[O-])c2)cc1 (stereo unspecified) 44.7 µM [inhibitor, single point], CCC(=O)Nc1cc(C(=O)OCC(=O)c2ccc(Cl)cc2Cl)ccc1C 20 µM [inhibitor, single point], O=C(CSc1ncnc2c1nnn2-c1ccc(F)cc1)N1CCN(c2ccccc2)CC1 25.1 µM [inhibitor, partial curve]
